In ChEMBL document CHEMBL1201862, “PubChem BioAssay data set” (2004):
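Values below derive from 48-hour exposures of cells grown in 96-well plates, with endpoints linearly interpolated between the two concentrations bracketing the appropriate inhibition level. GI50: concentration for 50% inhibition of growth.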 Calls of active or inactive are those of the source. Rule as the data show it: active = GI50 up to about 1.1 µM and inactive = higher.

Tested on: NCI-H322M
Test: growth of human tumour cells (NCI), 48 h

Row | Structure (SMILES) | GI50
1 | Cn1cc/c(=N\N=c2/ccn(C)c3ccccc23)c2ccccc21 | inactive: 16.6 µM
2 | C/C(=C\c1ccc(Cl)cc1)C(C)(C)C(=O)O | inactive: > 100 µM
3 | Nc1nc(-c2cccc([N+](=O)[O-])c2)cc(-c2cc(-c3cccc([N+](=O)[O-])c3)nc(N)n2)n1 | inactive: > 100 µM
4 | COC(=O)c1ccc(Cc2ccc(C(=O)OC)o2)o1 | inactive: > 378 µM
5 | COc1ccc(-c2oc3c(OC)c(OC)cc(O)c3c(=O)c2OC)cc1 | inactive: > 100 µM
6 | CCCS(=O)(=O)Nc1ccc(Nc2c3ccccc3nc3ccccc23)c(OC)c1 | inactive: 4.26 µM
7 | CC(C)C1CN1CC(O)Cn1ccnc1[N+](=O)[O-] (stereo not given) | inactive: > 100 µM
8 | CC(=O)NNc1nc(C)c(C(=O)NNC(=O)C(=O)Nc2cccc(C(C)=O)c2)s1 | inactive: 18 µM
9 | CCN(CC)C(=O)Cc1[nH][nH]c(=O)c1C(=O)N(CC)CC | inactive: > 100 µM
10 | CC1=CCC2CC1NC(=O)CCOCCC(=O)NC2(C)C (stereo not given) | inactive: > 100 µM
11 | O=C(O)CNS(=O)(=O)c1ccc(NC(=O)c2ccc(F)cc2)cc1 | inactive: > 100 µM
12 | COc1cc(CNc2nc3cc(C(F)(F)F)ccc3nc2-c2ccccc2)cc(OC)c1OC | inactive: 34.9 µM
13 | c1cc(CSP234N5CCN2CCN3CCN4CC5)ccc1CSP123N4CCN1CCN2CCN3CC4 | inactive: > 100 µM
14 | O=c1[nH]c2ccc(CC(=S)N3CCCCC3)cc2s1 | inactive: > 100 µM
15 | CC1(c2nc3ccccc3[nH]2)CCC(CO)C(C)(C)O1 (stereo not given) | inactive: > 100 µM
16 | Clc1ccc(N/N=C(\c2ccccc2)c2ccccn2)nc1 | active: 0.074 µM
17 | CC(c1ccccc1)N1CCN(C(C)c2ccccc2)CC1 (stereo not given) | inactive: > 100 µM
18 | C=C(CCOC)CCC1CCCCC(=C)[C@H]1OC(C)=O (stereo not given in full) | inactive: > 100 µM
19 | COc1cc2c(cc1OC)C(Cl)C(c1ccc(Cl)c(Cl)c1)=C2Cl (stereo not given) | inactive: 11.6 µM
20 | O=C(/C=C/c1ccc([N+](=O)[O-])cc1)c1nc2ccccc2[nH]1 | inactive: > 100 µM
21 | C[n+]1c2ccccc2c(C(=O)NC(CCCNC(=N)N)C(=O)O)c2ccccc21 (stereo not given) | inactive: > 100 µM
22 | O=Cc1cc(O)ccc1Br | inactive: 38.6 µM
23 | CCOC(=O)C(=O)C(C#N)c1ccc(Cl)cc1 (stereo not given) | inactive: > 100 µM
24 | CCOC(=O)/C(C(=O)NC(C)C)=C(/N)N1CCOCC1 | inactive: > 100 µM

Row | Structure (SMILES) | GI50
25 | COc1c(C(=O)/C(=N/Nc2ccccc2)C(C)=O)c(O)c(OC)c2occc12 | inactive: > 100 µM
26 | CCc1cccc(CC)c1NC(=O)/C(Cl)=C(/Cl)C(=O)O | inactive: > 100 µM
27 | Fc1ccc(C(=C2CCN(CCc3ccc4[nH]c(=S)[nH]c4c3)CC2)c2ccc(F)cc2)cc1 | inactive: 11.3 µM
28 | C=C(Cl)[C@@](Cl)(CBr)CC[C@@H](Br)C(C)(C)Cl | active: 0.407 µM
29 | O=C1CC(c2ccco2)C2(C(=O)NC(=O)NC2=O)C(c2ccco2)C1 (stereo not given) | inactive: > 75 µM
30 | Cc1c2ncccc2c(C)c2c1[nH]c1ccc(O)cc12 | inactive: 3.24 µM
31 | CSc1ccccc1NC1=NCCO1 | inactive: > 100 µM
32 | CC1=NC(C)(COC(=O)C2(C)NC(C)(CO)CO2)COC1=O (stereo not given) | inactive: > 100 µM
33 | CCOC(=O)C(C(=O)c1ccccc1-c1ccccc1C(=O)O)=P(c1ccccc1)(c1ccccc1)c1ccccc1 | inactive: 28.4 µM
34 | O=C(O)Cc1ccc(Oc2nc3ccccc3nc2-c2ccccc2)cc1 | inactive: > 100 µM
35 | COc1cc(-c2oc3c(OC)c(O)cc(O)c3c(=O)c2OC)ccc1O | inactive: 20.7 µM
36 | O=C/C(=C1/C=Cc2cc([N+](=O)[O-])ccc2S1)c1ccccc1 | inactive: > 100 µM
37 | O=C(CC(C(=O)c1ccsc1)c1ccccc1)c1ccccc1 (stereo not given) | inactive: > 100 µM
38 | Nc1ncc2c(n1)-c1ccccc1OC2NC1CC1 (stereo not given) | inactive: > 100 µM
39 | C[C@]12CC/C(=N\O)C=C1CC[C@@H]1[C@@H]2CC[C@]2(C)C(=N/O)/C(=C/c3ccncc3)C[C@@H]12 | inactive: 21.3 µM
40 | CCOC(=O)Oc1ccc(C(CNC(C)C)OC(=O)OCC)cc1OC(=O)OCC (stereo not given) | inactive: > 100 µM
41 | CN(C)Cc1cc(/N=N/c2ccc(Cl)cc2)ccc1OC(=O)c1ccccc1 | inactive: 18.1 µM
42 | Oc1ccc2ccccc2c1/N=N/c1ccc(Cl)cc1 | inactive: > 100 µM
43 | O=C(CSc1nc(=O)c(-c2ccccc2NC(=O)C(F)(F)F)n[nH]1)NC(=O)Nc1ccccc1 | inactive: > 100 µM
44 | O=C1CSC(Cc2nc3ccccc3[nH]2)=N1 | inactive: 25 µM
45 | C/C(=N\NC(=S)N(C)C)c1nc2cccnc2[nH]1 | active: 0.412 µM
46 | CCCCCCCCCCCCCCCCOCC(CC(F)(F)P(=O)(OCC)OCC)OC(C)=O (stereo not given) | inactive: 17.1 µM
47 | CCOP(=O)(OCC)/C(C#N)=C/c1cccn1Cc1ccccc1 | inactive: 38.3 µM
48 | CCOC(=O)/C(O)=C1\C(=O)N(C)C(=O)C1c1ccc(OC)c(OC)c1 (stereo not given) | inactive: > 100 µM

Row | Structure (SMILES) | GI50
49 | CSc1nc2c3ccccc3ccn2c1C(=O)N/N=C/c1ccccc1 | inactive: > 47.4 µM
50 | Cc1c2cnccc2c(C)c2c1[nH]c1ccc(O)cc12 | inactive: 2.01 µM
51 | Cc1ccc(Nc2nc3ccccc3nc2NS(=O)(=O)c2ccc(N)cc2)cc1 | inactive: > 100 µM
52 | COc1cc(CCCOC2OC(COC3OCC(O)C(O)C3O)C(O)C(O)C2O)cc2cc(-c3ccc4c(c3)OCO4)oc12 (stereo not given) | inactive: > 175 µM
53 | O=C(CC/C(CC(=O)c1ccc(Br)cc1)=N\O)Nc1ccc(Cl)c(Cl)c1 | inactive: > 100 µM
54 | O=C(c1ccccc1)N1C(=S)NC(=N/c2ccccc2)/C1=N\c1ccccc1 | inactive: > 100 µM
55 | O=C(Cl)c1cc([N+](=O)[O-])cc([N+](=O)[O-])c1 | inactive: > 100 µM
56 | N#Cc1c(-c2ccccc2)cn(C(=O)c2ccccc2)c1N | inactive: > 100 µM
57 | COc1nc2[nH]ccc2c(=O)n1C | inactive: > 100 µM
58 | CN(C)c1ccc2nc(CC(O)(C(F)(F)F)C(F)(F)F)ccc2c1 | inactive: > 10 µM
59 | Cc1c2cccc-2ccc2c3ccccc3n(C(=O)c3ccc(Cl)cc3)c12 | inactive: > 100 µM
60 | CCOC(=O)c1c(-c2ccc(Cl)cc2)c(C#N)c(=S)n(C2OC(CO)C(O)C(O)C2O)c1-c1ccccc1 (stereo not given) | inactive: 30.9 µM
61 | Cc1cn(CCCCCOC(=O)NC(CCCNC(=N)N)C(=O)O)c(=O)[nH]c1=O (stereo not given) | inactive: 69.7 µM
62 | Cn1cc(S(=O)(=O)NC(=O)Nc2ccc(Cl)cc2)c2ccccc21 | inactive: > 100 µM
63 | CCC12CN(C(=O)OC)C3C(Br)C1CCC(=O)C32 (stereo not given) | inactive: > 100 µM
64 | O=C1c2cc3c(cc2CC12Cc1cc4c(cc1C2=O)CCC4)CCC3 | inactive: > 100 µM
65 | O=c1c2c(nc3n1CCC3)sc1c(O)c(Br)ccc12 | inactive: 18.2 µM
66 | C=C(C=O)[C@@H]1C2OC(=O)C(=C)[C@@H]2CC(O)[C@@]1(C)CC (stereo not given in full) | inactive: 14.9 µM
67 | Cc1c2cccc-2ccc2c1[nH]c1ccc(Br)cc12 | inactive: 13 µM
68 | COc1cccc(C(=O)N[C@@H]2[C@H](O)[C@@H](CO)O[C@H]2n2cnc3c(N)ncnc32)c1 | inactive: > 100 µM
69 | CC1=NN(C(=O)c2ccc(Cl)cc2)C(=O)C1/N=N/c1ccc(S(=O)(=O)Nc2ncccn2)cc1 (stereo not given) | inactive: 57.8 µM
70 | Oc1cc(-c2ccccc2)nc2c(S)cccc12 | inactive: > 100 µM
